Experimental data reported in the supplement of paper PMC11417369.
± gives the standard deviation of the averaged measurements. Some of the results follow.

system: PfAP2-EXP AP2 domain (GST-tagged); assay: gcPBM binding intensity (ln(normalized median fluorescence intensity)); higher = stronger DNA binding
Method in brief: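 GST-tagged P. falciparum DNA-binding domains, expressed in E. coli (about 25 μg on average), were applied for 1 h to an Agilent 4 × 180k array of primer-extended double-stranded 36-bp intergenic genomic probes plus negative controls. The binding buffer was 1× PBS with 1% milk, 0.2 mg/ml BSA, 0.5% salmon testes DNA and 0.03% Triton X-100. Bound protein was detected with Alexa488 anti-GST antibody and scanned at 488 nm. Binding intensity is the highest Masliner-normalised natural-log median intensity across replicate spots of either probe orientation.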

Sequence	gcPBM binding intensity (ln)
TGTGCTCAAAATTATGCACACACCTAAAATTAATTT [CACACA_site8950]	8.64 ± 0.38
CCAACTATATTATGAAGTACATATATATTATATATA [XGTACX_site5767]	8.57 ± 0.42
TATACATATTTTATAGCACACAAATAATAATATGTA [CACACA_site8129]	8.38 ± 0.32
AAACCTACATAACATACACACGCATATATATAATTT [CACACA_site8923]	8.71 ± 0.39
TTTTTTTTTTTTTATTGTACATGCAAAAAATTCCAC [XGTACX_site2371]	8.66 ± 0.34
TCTGTATTTCCTTATGCATGCATTAGCAAGATAATA [TGCATGCA_site483]	9.96 ± 0.61
ATATATATATATTGTAGTACTTATTAAATTATTTAT [XGTACX_site6235]	9.88 ± 0.3
TTGGGTATTTTGTGCGCACACACATGCAAAAAGAAA [CACACA_site8299]	9.26 ± 0.26
GTAAGTATATATAAATGTACTTATGAGGTCAAATTA [XGTACX_site3392]	8.39 ± 0.35
ATATATAATCATATGTGTACATATATATTAATTTAA [XGTACX_site2839]	8.32 ± 0.13
AATTCAAAATAAAAATGTACATATATCAGAATATGG [XGTACX_site42]	8.65 ± 0.36
AAAAAAAAAAAAAAAACACACATTTAATGAACTTAT [CACACA_site1276]	8.56 ± 0.3
ATTATTTTTTTTCTTATACACACCATGCATCAAACT [CACACA_site2128]	8.96 ± 0.49
AAAAATAAGAAAAAGTGTACTTTATTATGTATATAT [XGTACX_site2305]	8.54 ± 0.26
ACTTGTAAGAAACACACACACACACCGATATATATA [CACACA_site4594]	8.74 ± 0.52
AAAATTATATATTATAGTACATAAAATATTGATAAA [XGTACX_site8988]	8.32 ± 0.3
AATAATGTATGAAATAAACACACAAGTAAGTACATA [CACACA_site8776]	8.85 ± 0.39
ATAATTTTAAATAAATGTACATATAGATGTGTGTAA [XGTACX_site3958]	8.96 ± 0.26
AAATGTTATATATAATGTACTTGTAAGAACGTTCCT [XGTACX_site2840]	8.67 ± 0.45

Sequence	gcPBM binding intensity (ln)
ATGAGAAAATATATTATTTTATATGAACAAGTTTAT [XGTACX_negctrl_site372]	8.21 ± 0.4
TATAACATTGTATGAATGCACTTTTATCTATTTTAA [GTGCAC_site9903]	8.36 ± 0.28
TTTTTTTTTTATGTTATTAAAAAAAAAAAAAATTAA [CACACA_negctrl_site222]	7.96 ± 0.47
AAGATACACTTAATCGCACACGAAATTATATATTTA [CACACA_site3063]	8.28 ± 0.33
ATTAATTATAATGTATGTACATAACTTTTTTATATT [XGTACX_site5784]	8.67 ± 0.38
TATTTACCCTCATGTTGTACTTTTCATTCATTTTAT [XGTACX_site7794]	9.21 ± 0.44
ACAAGTTTTTTTTTATCACACACAAAAAAAAAAATA [CACACA_site8377]	8.26 ± 0.45
AACATACATAGACACACACACACACGCACACGCACA [CACACA_site6373]	8.61 ± 0.48
GAAAATACGTTTAATCGTACATATATATAATATATA [XGTACX_site4243]	8.45 ± 0.33
TTTATTATTTTTAGGAGTACACAAAATAAAACAAAT [XGTACX_site8841]	8.84 ± 0.33
TTTTGTTATAAATAATGTACATATTTATTTAAAATT [XGTACX_site6610]	8.21 ± 0.37
AAAAACAGAAATGTAACACACAAAAATTCTATTTAT [CACACA_site4026]	8.05 ± 0.27
TCTATAAAGGAATATACACACATATATAAATATGTA [CACACA_site6332]	8.19 ± 0.38
AACCTTTATATGTAAAGTACAAAAAAGAGTAAAAAA [XGTACX_site5506]	8.57 ± 0.42
TATAAAAATGTGCACACACACACATATTTATATTTA [CACACA_site6826]	8.63 ± 0.11
TATATTATATACCATTGTACATATAATATAGGTTCT [XGTACX_site7047]	8.38 ± 0.38
AAAATCATTCCAAAGACATGCATTTTGCAAATAAAA [TGCATGCA_site461]	8.39 ± 0.36
AATATATGTATGTACGCATGTATGTATCTATGTATT [TGCATGCA_site389]	8.65 ± 0.3
TTATAATTATATACATGTACATATAATACATATATA [XGTACX_site8904]	8.48 ± 0.35

Sequence	gcPBM binding intensity (ln)
TGTAATAAATAGTACACACACACATATTTATATATC [CACACA_site6770]	8.84 ± 0.44
ATATGGGTAATGAATTGTACTCTTTCTTGTTGTTCT [XGTACX_site4487]	8.64 ± 0.52
GTATAATTTTCGTATTCACACAAGAATATACTACAT [CACACA_site4877]	8.74 ± 0.43
TATAATATTATATATAAACACACATACACATGTAAA [CACACA_site8631]	8.79 ± 0.73
GTATATTTATAGCCTTTATTATATTTAATATTATTA [TGCATGCA_negctrl_site26]	8.53 ± 0.39
AGAAAAGTTTAATACAGTACATAAACAAAGTATAGG [XGTACX_site2386]	8.49 ± 0.95
GTTATATTTTTTTATACACACTGGAATATATAAATA [CACACA_site4282]	8.56 ± 0.37
ACCCAATTTTAAAATGAACACACATGTTTTTCTTAC [CACACA_site8246]	8.82 ± 0.25
TATTTATTGTGATACTACTATTATTTTATGATTAAA [CACACA_negctrl_site284]	8.44 ± 0.42
ATAATTATATATTTATGTACGCATAAATATTTATAT [XGTACX_site5765]	8.49 ± 0.3
AACTATATCATTTATTTTATTTTTTAAATACATTTA [CACACA_negctrl_site183]	8.42 ± 0.35
TTGTTTTATTATTCGATGCACTACAGAAATATATTC	8.89 ± 0.34
TATACAACTTTATGAAGTACAAAAAGTTCTATATAT [XGTACX_site3866]	8.3 ± 0.47
TTATATTATTTTTAATGTACTTTTTATGAATACAAA [XGTACX_site689]	8.48 ± 0.21
TATATATAACTTTATTGTACAAAATATTATGTATTC [XGTACX_site981]	8.47 ± 0.43
TTATAATTTTAATGTGCACACAATTAAAATATTATA [CACACA_site5172]	8.57 ± 0.18
TGTAAGAAATTGAGCGCACACATACATCTGTGGGAT [CACACA_site4945]	8.87 ± 0.48
TATAAATAAATATACACACACACATATAAATATGTA [CACACA_site6504]	8.36 ± 0.38
TTTTGTTTATGTGTGCATTATATTATATTTTTTATT [TGCATGCA_negctrl_site146]	8.96 ± 0.28
